Source: the GPR68 mutational scans of Howard et al. (2025)

B1: GPR68, Q15743 (parent)
chain: MGNITADNSSMSCTIDHTIHQTLAPVVYVTVLVVGFPANCLSLYFGYLQIKARNELGVYLCNLTVADLFYICSLPFWLQYVLQHDNWSHGDLSCQVCGILLYENIYISVGFLCCISVDRYLAVAHPFRFHQFRTLKAAVGVSVVIWAKELLTSIYFLMHEEVIEDENQHRVCFEHYPIQAWQRAINYYRFLVGFLFPICLLLASYQGILRAVRRSHGTQKSRKDQIQRLVLSTVVIFLACFLPYHVLLLVRSVWEASCDFAKGVFNAYHFSLLLTSFNCVADPVLYCFVSETTHRDLARLRGACLAFLTCSRTGRAREAYPLGAPEASGKSGAQGEEPELLTKLHPAFQTPNSPGSGGFPTGRLA

Tests used:
[1] = variants of: B1; experiment: cAMP reporter score (Enrich2 score, wild type = 0); higher = more signal; HEK293T, FACS bins
[2] = variants of: B1; experiment: surface expression score (Enrich2 score, wild type = 0); higher = more signal; HEK293T, FACS bins

Variant | cAMP reporter score ([1]; pH 5.5) | cAMP reporter score ([1]; pH 6) | cAMP reporter score ([1]; pH 6, modulator: ogerin) | cAMP reporter score ([1]; pH 6.5, modulator: ogerin) | surface expression score [2]
I145del | -0.376 | -1.58 | -0.856 | -0.801 | -2.29
I145_W146insGS | -0.956 | -0.6 | -1.8 | -0.923 | -1.8
K148_E149del | -1.6 | -1.1 | -1.42 | -0.831 | -2.45
I145_W146del | -1.52 | -0.427 | -1.15 | -1.35 | -2.11
V143_I145del | -1.4 | -0.514 | -2.15 | -0.518 | -2.73
MGNITADNSSMSCTIDHTIHQTLAPVVYVTVLVVGFPANCLSLYFGYLQIKARNELGVYLCNLTVADLFYICSLPFWLQYVLQHDNWSHGDLSCQVCGILLYENIYISVGFLCCISVDRYLAVAHPFRFHQFRTLKAAVGVSWVIWAKELLTSIYFLMHEEVIEDENQHRVCFEHYPIQAWQRAINYYRFLVGFLFPICLLLASYQGILRAVRRSHGTQKSRKDQIQRLVLSTVVIFLACFLPYHVLLLVRSVWEASCDFAKGVFNAYHFSLLLTSFNCVADPVLYCFVSETTHRDLARLRGACLAFLTCSRTGRAREAYPLGAPEASGKSGAQGEEPELLTKLHPAFQTPNSPGSGGFPTGRLA [V143W] | -1.69 | -1.51 |  | -0.807 | -2.72
MGNITADNSSMSCTIDHTIHQTLAPVVYVTVLVVGFPANCLSLYFGYLQIKARNELGVYLCNLTVADLFYICSLPFWLQYVLQHDNWSHGDLSCQVCGILLYENIYISVGFLCCISVDRYLAVAHPFRFHQFRTLKAAVGVSYVIWAKELLTSIYFLMHEEVIEDENQHRVCFEHYPIQAWQRAINYYRFLVGFLFPICLLLASYQGILRAVRRSHGTQKSRKDQIQRLVLSTVVIFLACFLPYHVLLLVRSVWEASCDFAKGVFNAYHFSLLLTSFNCVADPVLYCFVSETTHRDLARLRGACLAFLTCSRTGRAREAYPLGAPEASGKSGAQGEEPELLTKLHPAFQTPNSPGSGGFPTGRLA [V143Y] | -0.728 |  | -1.49 | -1.55 | -1.68
MGNITADNSSMSCTIDHTIHQTLAPVVYVTVLVVGFPANCLSLYFGYLQIKARNELGVYLCNLTVADLFYICSLPFWLQYVLQHDNWSHGDLSCQVCGILLYENIYISVGFLCCISVDRYLAVAHPFRFHQFRTLKAAVGVSTVIWAKELLTSIYFLMHEEVIEDENQHRVCFEHYPIQAWQRAINYYRFLVGFLFPICLLLASYQGILRAVRRSHGTQKSRKDQIQRLVLSTVVIFLACFLPYHVLLLVRSVWEASCDFAKGVFNAYHFSLLLTSFNCVADPVLYCFVSETTHRDLARLRGACLAFLTCSRTGRAREAYPLGAPEASGKSGAQGEEPELLTKLHPAFQTPNSPGSGGFPTGRLA [V143T] | 0.636 | 0.23 | 0.284 | 0.928 | -0.007
W146_K148del | -1.62 | -0.698 | -1.12 | -0.689 | -2.68
MGNITADNSSMSCTIDHTIHQTLAPVVYVTVLVVGFPANCLSLYFGYLQIKARNELGVYLCNLTVADLFYICSLPFWLQYVLQHDNWSHGDLSCQVCGILLYENIYISVGFLCCISVDRYLAVAHPFRFHQFRTLKAAVGVSVVIWAKALLTSIYFLMHEEVIEDENQHRVCFEHYPIQAWQRAINYYRFLVGFLFPICLLLASYQGILRAVRRSHGTQKSRKDQIQRLVLSTVVIFLACFLPYHVLLLVRSVWEASCDFAKGVFNAYHFSLLLTSFNCVADPVLYCFVSETTHRDLARLRGACLAFLTCSRTGRAREAYPLGAPEASGKSGAQGEEPELLTKLHPAFQTPNSPGSGGFPTGRLA [E149A] | -1.54 | 1.57 | -0.701 |  | -0.427
K148_E149insG | -1.49 | -1.07 | -1.81 | -1.29 | -2.15
W146_A147del | -1.15 | -0.303 | -1.41 | -0.555 | -1.93

Scores whose standard error is large were omitted. Two further conditions of the source, in which the scores hardly spread, are not listed. Names with del lack the residues named; names with ins carry added residues between the positions named. For part of these data: The concentration of ogerin is not given here.
